According to article PMC10668032:
Some of the results follow. At the low end of the ranking the order means little.

biological target: SIX1-Q177R homeodomain (UniProt Q15475); assay: universal protein binding microarray; conditions: Universal all-10-mer PBM (8x60K, AMADID 030236), 300 nM GST-tagged protein, Alexa Fluor 488 anti-GST; buffer, salt, pH and temperature not stated; high values mean tight binding; most listed sequences are background and not binding sites; double strand, one strand shown

Row | Sequence | binding signal
1 | GACCCGGA | 0.184 E-score
2 | ACGCAGAT | -0.0547 E-score
3 | CTCTTACC | -0.055 E-score
4 | ATATATGC | -0.116 E-score
5 | AGTTCCTG | -0.355 E-score
6 | ATACTAAA | -0.122 E-score
7 | AGACGGAT | 0.0819 E-score
8 | CGGTGATC | 0.163 E-score
9 | GCTCCAGA | -0.134 E-score
10 | CGCGCTTC | -0.0249 E-score
11 | AGGGCGAC | 0.0365 E-score
12 | ATACACGG | 0.401 E-score
13 | ATAGTGAG | -0.0704 E-score
14 | ACTCTCCA | 0.105 E-score
15 | GGGACAAA | -0.139 E-score
16 | CTCTCACA | 0.0243 E-score
17 | CTCAAGGC | -0.09 E-score
18 | GAGTCCTA | 0.0614 E-score
19 | ACTTCTCG | -0.0756 E-score
20 | GTACGGTA | 0.0455 E-score
21 | TAATTACA | 0.013 E-score
22 | ACTCGCCC | 0.126 E-score
23 | CATCCCAG | -0.0833 E-score
24 | CAAAAGTG | 0.0612 E-score
25 | AATAAAGT | -0.144 E-score

Row | Sequence | binding signal
26 | TAGAAGAA | -0.02 E-score
27 | AGGCTTGG | -0.136 E-score
28 | CGGTAGTA | 0.00874 E-score
29 | AGGGGACA | 0.179 E-score
30 | GCGATGTA | 0.123 E-score
31 | CTTCCGCC | -0.225 E-score
32 | ACGACTGC | -0.00522 E-score
33 | GTGTTCTA | 0.392 E-score
34 | CGGGACTA | -0.305 E-score
35 | ACCCACAC | 0.348 E-score
36 | AACTAATG | -0.232 E-score
37 | ACCTAGTC | -0.00298 E-score
38 | AATTTAAA | -0.207 E-score
39 | ACGTCCAT | -0.103 E-score
40 | ACGCCCGA | 0.17 E-score
41 | CTCCTGAA | -0.0647 E-score
42 | GGAGAGCA | -0.0895 E-score
43 | GCATCCGA | 0.0812 E-score
44 | GTGTTACA | 0.442 E-score
45 | GCTACATA | -0.199 E-score
46 | AACGTCTA | -0.231 E-score
47 | CCAATAAA | -0.102 E-score
48 | CACTGAGA | 0.202 E-score
49 | CTGAAGTC | -0.111 E-score
50 | ACAGAAGA | -0.0919 E-score

Row | Sequence | binding signal
51 | CACATTAC | 0.0396 E-score
52 | CATTTAAG | -0.291 E-score
53 | GATCCCCC | 0.368 E-score
54 | GATCAACC | -0.0524 E-score
55 | AACGACAG | -0.0981 E-score
56 | GGTTCTAC | -0.0604 E-score
57 | GATTATAC | 0.081 E-score
58 | GCCACAAA | -0.101 E-score
59 | ATTCTGAA | -0.255 E-score
60 | ACATATCC | -0.141 E-score
61 | ATCCTTAC | 0.0764 E-score
62 | ACCACACA | 0.196 E-score
63 | GCCCGGCC | -0.00347 E-score
64 | CATGGTCG | -0.0497 E-score
65 | GGACCCCA | 0.138 E-score
66 | ACTTGCCA | -0.0386 E-score
67 | GGATGCAC | 0.0254 E-score
68 | ATGGCGCG | -0.118 E-score
69 | GATTGTAA | -0.248 E-score
70 | CCGGCGAA | -0.11 E-score
71 | AAACTTCC | -0.22 E-score
72 | AATAAGGT | -0.0889 E-score
73 | AATGGCTA | -0.13 E-score
74 | GACGAAAC | -0.296 E-score
75 | CGAACTGC | -0.238 E-score

Row | Sequence | binding signal
76 | ATACGGAT | 0.0821 E-score
77 | CGAACCTA | -0.117 E-score
78 | GGTGACGA | -0.0414 E-score
79 | CCCCTAAA | -0.0522 E-score
80 | GCAACATA | -0.121 E-score
81 | ACCGGGTC | 0.237 E-score
82 | ACCCCGTC | 0.178 E-score
83 | CAAATTCA | -0.139 E-score
84 | AAATCAGT | 0.0212 E-score
85 | GGAAAGCA | -0.085 E-score
86 | GCAACGCC | 0.0787 E-score
87 | CCCTCCAG | 0.149 E-score
88 | ACAAAGAA | -0.0597 E-score
89 | CGGGTGGA | 0.173 E-score
90 | CAAGGGGG | 0.143 E-score
91 | AACACGGG | 0.432 E-score
92 | ATTCAGTA | -0.195 E-score
93 | TCGGTCAA | -0.0711 E-score
94 | CGAGTAAC | 0.0985 E-score
95 | CGAGATTC | -0.0507 E-score
96 | ACTATGAA | -0.157 E-score
97 | CCCATTGC | -0.0231 E-score
98 | CGCTGGTA | -0.0475 E-score
99 | TCGAGCCA | 0.0597 E-score
100 | AGTACAGA | -0.121 E-score

Row | Sequence | binding signal
101 | AGAGGGGA | 0.0312 E-score
102 | TAGATTAA | -0.0193 E-score
103 | AGAGAGTC | -0.0205 E-score
104 | ACATATCA | -0.0686 E-score
105 | CAAAGTCG | -0.104 E-score
106 | CCTGCTCG | -0.12 E-score
107 | CGTAAATA | -0.0461 E-score
108 | GACACCAC | 0.489 E-score
109 | ACTTTGAT | -0.0928 E-score
110 | ATAAAGTG | 0.0427 E-score
111 | ACCGTTGC | 0.000345 E-score
112 | CCTTCACC | -0.116 E-score
113 | CACACACG | 0.248 E-score
114 | GCAGCTCA | -0.22 E-score
115 | TAACTATA | -0.127 E-score
116 | CTCCGGCA | -0.0702 E-score
117 | ATCCGTCA | -0.189 E-score
118 | AATAGGAC | -0.193 E-score
119 | CAGCACTC | -0.0681 E-score
120 | ACTGACCT | -0.148 E-score
121 | AAGGACGA | -0.172 E-score
122 | ACAGTGAT | -0.112 E-score
123 | AATGATGC | -0.314 E-score
124 | GACACCTA | 0.463 E-score
125 | AGCACCCC | 0.295 E-score

Row | Sequence | binding signal
126 | AGACTACC | -0.0934 E-score
127 | GGCAGCGA | -0.0458 E-score
128 | GGTCTGAC | -0.0387 E-score
129 | GAAACATC | -0.139 E-score
130 | AGGTCCGA | -0.0105 E-score
131 | CTAGCTAG | 0.0144 E-score
132 | AGCGGGGG | 0.206 E-score
133 | ACTTGATG | -0.0408 E-score
134 | AGAAGATG | -0.307 E-score
135 | TGGAACCA | -0.197 E-score
136 | ACAAGAAA | -0.24 E-score
137 | AGCTTGGG | -0.0165 E-score
138 | CGATTTCA | -0.155 E-score
139 | CAAGAAGA | -0.143 E-score
140 | AGCGCGAG | 0.146 E-score
141 | GATCCGGC | -0.00713 E-score
142 | GAAAGTCC | -0.357 E-score
143 | AACCTAAT | -0.166 E-score
144 | AGTCGACA | 0.104 E-score
145 | CGCTTAAA | -0.285 E-score
146 | CTCCCATC | -0.0346 E-score
147 | CGTGGCCA | -0.125 E-score
148 | ATCGTCGA | -0.164 E-score
149 | CGGAAACC | -0.0658 E-score
150 | CCTGCTTC | -0.0438 E-score

Row | Sequence | binding signal
151 | ACAGGAAT | -0.0608 E-score
152 | CACTTGCG | 0.196 E-score
153 | ACGCCTCC | 0.0888 E-score
154 | CTGGCGTA | 0.0791 E-score
155 | GACAACGA | -0.0533 E-score
156 | ACGTAACG | -0.0654 E-score
157 | GCCGGAAA | -0.0573 E-score
158 | CAAAAAAC | -0.0186 E-score
159 | ATGTTAGA | -0.0915 E-score
160 | CTCCCTCC | -0.00285 E-score
161 | GCTGATAA | -0.0257 E-score
162 | ATCCTCAG | -0.0088 E-score
163 | ATACCAGG | 0.135 E-score
164 | TCAATAAA | -0.31 E-score
165 | CAACCCGG | 0.0483 E-score
166 | CCTACTCG | 0.0473 E-score
167 | AACATTAA | -0.259 E-score
168 | GTCGTATA | -0.00498 E-score
169 | ACAAACCC | 0.0914 E-score
170 | AGGCTGTG | -0.0285 E-score
171 | CGGATGAA | -0.102 E-score
172 | AGGATAGG | 0.0175 E-score
